Source: the RNAGym collection of RNA variant scans (doi:10.7554/elife.90254)
Read counts are not given, so values of variants with three or more changes are uncertain.

B1: LINE1-mini (parent)
chain: GGCAGAGCUCAACACAGCGUGGCAAAGUGGCUGUGGCUAGACUGCC

Variants of: B1
Assay: self-cleavage, relative activity (ratio to wild type); higher = more cleavage; in vitro, sequencing; the parent is a self-cleaving ribozyme

Row | Variant | self-cleavage
1 | GGCAUAGCUCAACACAACGUGGCAUAGUGGCUGUGGCUAGACUGCC [G5U G17A A25U] | 0.06
2 | GGCAGACCUCAACAUAGCGUGGCAAAGUGGCUGUGGCUAGACCGCC [G7C C15U U43C] | 0.08
3 | GGCAGAGCUCAUCACAGCGUGGUAAAAUGGCUGUGGCUAGACUGCC [A12U C23U G27A] | 0.97
4 | GGCAGAGCUCAACAGAGCGUGGCAAAGUGCCUGUGGCUAGACUACC [C15G G30C G44A] | 0.03
5 | GGCAGAGCUCAACAAAGCGGGGUAAAGUGGCUGUGGCUAGACUGCC [C15A U20G C23U] | 0.03
6 | GGCAGAGCUCCACACUGCGUGGCAAAGUGGUUGUGGCUAGACUGCC [A11C A16U C31U] | 0.01
7 | GGCUGAGCUCAACACUGCGUGUCAAAGUAGCUGUGGCUAGACUGCC [A4U A16U G22U G29A] | 0.1
8 | CGCAGAGCUCAGCACAGCGUGGCAAAGUGGCUGUGGAUAGACUGCC [G1C A12G C37A] | 0.08
9 | GGCAGAGCUCAACACAGCGUGGCAAAGUGUCUGUGGCUAGAAGGCC [G30U C42A U43G] | 0.02
10 | GGCAGGGCUCAACACUGCGUGGCAAAAUGGCUGUGGCUAGACUGCC [A6G A16U G27A] | 0.07
11 | GGCAGAGCUCAACAAAGCGUGGCGAAGUGUCUGUGGCGAGACUGCC [C15A A24G G30U U38G] | 0.02
12 | GCCAGAGCUCAACACAGCCUGGCAAAGUGGCUGUGGCUAGACUGGC [G2C G19C C45G] | 0.12
13 | GGAAGAGCUCAACACAGCGUGGCAAAUAGGCUGUGGCUAGACUGCC [C3A G27U U28A] | 0.24
14 | GCCAGAGCUCAACACAACGUGGCAGUGUGGCUGCGGCUAGACUGCC [G2C G17A A25G A26U U34C] | 0.01
15 | GUCAGAGCUCAACACUGCUUGGCAAAGUGGCGGUGGCUAGACUGCC [G2U A16U G19U U32G] | 0.03
16 | GGCAGAGCUCAACACAGCCUGUCAAAGGGGCUGUGGCUAGACUGCC [G19C G22U U28G] | 0.38
17 | GGCUGAGCUCGACACAGCGUGGCAAAGUGGAUGUGGCUAGACUGCC [A4U A11G C31A] | 0.02
18 | GGCAGAGCUCUACACUGCGUGGCAAAGAGGCUGAGGCUAGACUGCC [A11U A16U U28A U34A] | 0.06
19 | GGCAGAGCUCAACCCAACGUGGCAAAGUGGCUGUGGCUGGACUGCC [A14C G17A A39G] | 0

Row | Variant | self-cleavage
20 | GGUAGAGCUCAAUACAGCGUGGCAAAGUGUCUGUGGCUAGACUGCC [C3U C13U G30U] | 0.1
21 | GGCAGACCUCAACACAGCGUGGCAAAGUAGGUGUUGCAAGACUGCC [G7C G29A C31G G35U U38A] | 0.02
22 | GGUAGCGCUCAACACAGCGUGGCAAAGUGGCUGUGGCUAGCCCGCC [C3U A6C A41C U43C] | 0.11
23 | GGCACAGCUCAUCACAGCGUGGCAAAGUAGCUGUGGCUAGGCUGCC [G5C A12U G29A A41G] | 0.02
24 | GGCAUAGUUCAACACAGCGUGGCAAAGUUCCUGUGCCUAGACUGCC [G5U C8U G29U G30C G36C] | 0.11
25 | GGAAAAGCUCAACACAGCGUGGGAAAGUGGCUGUGCCUAGACUUCC [C3A G5A C23G G36C G44U] | 0.24
26 | GGCAGAGCUCCACACAGCUUGACAAAGUGGCUGUGGCAAGACUGCC [A11C G19U G22A U38A] | 0.85
27 | GGCAGACCUCUACACAGCGUGGCAAAGUGUCUGUGGCUAGACUGCC [G7C A11U G30U] | 0.02
28 | GGCAGAGCUCAACCCAGCGUGGCAUAGUGGCGGUGGCUAGACUGCC [A14C A25U U32G] | 0.07
29 | GGCAGACCUCAACACAGCGUGGCAAAGUGUCUGUGGCAAAAAUGCC [G7C G30U U38A G40A C42A] | 0.02
30 | UGCAGAGCUCAACACAGCGAGGCAAUGUGGCUGUGGCUAGACUGCC [G1U U20A A26U] | 0.14
31 | GGCAGAGCUCAACAAAGCGUGGCAAAGUGGCUGUGGUUAGAUUGCC [C15A C37U C42U] | 0.03
32 | GGCAGAGCUCAACACAGCGUGGCUAAGUGGAUCUGGCUAGACUGCC [A24U C31A G33C] | 0.04
33 | GCCAGAGCUCAACUCAGCGUGGCAAAGUGGCUGUGGCUGGACUGCC [G2C A14U A39G] | 0.07
34 | GGCAGAGCUCAUAACAGCAUUGCAAAGUGGCGGUGGGUAGACUGCC [A12U C13A G19A G21U U32G C37G] | 0.01
35 | GGCUGAGCACAAAACAGAGUGGCAAAGUGGCUGUGGCUAGACUGCC [A4U U9A C13A C18A] | 0.1
36 | CGCAAAGAUCAACAGAGCGUGGCAAAGUGGCAGUGGCUAGACCGCC [G1C G5A C8A C15G U32A U43C] | 0.05
37 | AGCAGAGCUCAACACAGCGUGGCAAACUGGCUGUGGCUAGACUGCG [G1A G27C C46G] | 1.71
38 | UGCAGAUCUCAACACAGUGUUGCAAAGUGGCUGUGGCUAGACUGCC [G1U G7U C18U G21U] | 0.03

Row | Variant | self-cleavage
39 | GGUAGAGCUGACCACAGCGGGGGAAAGUGGCUGUGGCAAGAAUGCC [C3U C10G A12C U20G C23G U38A C42A] | 0
40 | GGCGGAGCUCAACAAAGGGUGGCUAAGUGGCUGUGGCUAAACUGCC [A4G C15A C18G A24U G40A] | 0.04
41 | GUCAGAGCUCAACACAGCGUGCCAAAGUGGAUGUGCCUAAACUACC [G2U G22C C31A G36C G40A G44A] | 0.01
42 | GGCAGAGCCCAACACAGCGUGGCAAUGUGGCUGUGCCGAGACUGCC [U9C A26U G36C U38G] | 0.02
43 | GGUGGAGCUCAUCACAGCGUGGCAAAGUGGCUGUGGCUAGACUGCC [C3U A4G A12U] | 0.11
44 | GGCAGUGCUCAACACAGCAUGGAAAAGUGGCUGUGGCUAGACUGCC [A6U G19A C23A] | 1.03
45 | GGCAGAGCUCAGCACAGCCUGGCAAAGUGGCCGUGGCUAAACUGCC [A12G G19C U32C G40A] | 0.04
46 | GGCUUAGCUCAAGACAGCGUGGCAAAGUGGCUGUGGCUAGACUGCC [A4U G5U C13G] | 0.12
47 | GGCAAACCUCAACACAGCGUGGCAAAGUGGCUGUGGAUAGACUGCC [G5A G7C C37A] | 0.09
48 | GGCAGAGCUCAAGACAGCGAGGCAAAGUGGCUGUGUCUAGAGUGCC [C13G U20A G36U C42G] | 0.02
49 | GGCAGAGCUCAACACAGCGUGGCAAAGUGGCAGGGGCUAGAAUGCC [U32A U34G C42A] | 0.02
50 | GGCAGACCUCUACACAGCGUGGGAACGUGGCUGUGGCUAGACUGCC [G7C A11U C23G A26C] | 0.01
51 | AUCAGAGCUCAACACAGCGUGGCAAAGUGGCUGUGGCUAAACUGCC [G1A G2U G40A] | 0.02
52 | GGCAGAGCUUAACACAGCGUGGCAAAGUCUCUGUGGCUAGACUGCC [C10U G29C G30U] | 0.04
53 | GGCAGUGCUCAACACAGCGUGGCAAAGUGGUUGUGGCUAGACUUAC [A6U C31U G44U C45A] | 0.32
54 | GGCAUAGCUCAACUCAGCGUGGCAAAGUGGCCGUGGCUCGACUGCG [G5U A14U U32C A39C C46G] | 0.01
55 | GGCAGAGUUCAACACAGCGUGGCAAAGUGCCAGUGGCUAGACUGCC [C8U G30C U32A] | 0.06
56 | GGCCGAGCUCAACACAGCGUGGGAACGUGGCUUUGGCUAGCCUGCC [A4C C23G A26C G33U A41C] | 0.11
